± gives the standard deviation. Only a part is listed here, and it is no random draw.
The sequences below were run on MIWI (PIWIL1) piRISC loaded with piRNA #1 (30 nt) (assay: pre-steady-state target cleavage rate (min^-1); MIWI and MILI are mouse PIWI proteins and EfPiwi is from a freshwater sponge; tags in brackets are library labels; higher = faster piRNA-guided slicing of the target). Conditions: guide: piRNA #1 5'p-UGAGGUAGUAGGUUGUAUAGUAUCCAGAGG; auxiliary factor: 500 nM mouse GTSF1.
Summary of the method: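 Active affinity-purified piRISC carrying one synthetic guide (1 nM) was mixed with a transcribed, DNA-blocked target RNA library […] in HEPES–potassium acetate buffer at 33 °C for 0–8 or 0–960 min, with or without 500 nM GTSF1 partner protein. Uncleaved targets were then sequenced and normalised to depth and to weakly complementary targets. Three trials were pooled, and k3 was capped at 0.0001 min^-1. A burst-and-steady-state fit was applied to obtain the pre-steady-state cleavage rate.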
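Also: 1 nM active piRISC with 0.1 nM target library at 33 °C single turnover.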

Sequence | pre-steady-state target cleavage rate
GGAGACCUUACUAAAGAACCUACUACCUCA | 0.0599 ± 0.013
CCUCUGGAUACUAUUGAACCUACUACCUCA | 1.23 ± 0.087
GGUGAGGAUACUAUACAACCUACUACCUCA | 0.727 ± 0.042
GCACUCGAUACUAUACAACCUACUACCUCA | 1.43 ± 0.059
GGUCUGGACACUAUACAACCUACUACCUCA | 1.77 ± 0.1
GGAGUGGAUACUUUACAUCCUACUACCUCA | 1.14 ± 0.076
GGAGACCUUAGUAUACAACCUACUUCCUCA | 0.0429 ± 0.0098
GGAGACCUUACUAUACAUCGUACUACCUCA | 0.0464 ± 0.007
GGAGACCAUACUAAACAACCUACUACCACA | 1.03 ± 0.12
GGAGUGGAUACUAUAAACCUACUACCUCA | 0.8 ± 0.094
CCUCUGGAUACUAUACAACCUACUUGGAGA [g7:g30:cont:t1A] | 0.105 ± 0.026
GCUCUGGAUACUAUACAAUCUACUACCUCA | 0.523 ± 0.028
GGAGACCUAUGUUACAACCUACUACCUCA | 0.0172 ± 0.0071
GGAGACCUAUGAUAUCCAACCUACUACCUCA | 0.00339 ± 0.0015
GGAGAGGAUAAUAUACAACCUACUACCUCA | 1.05 ± 0.058
GCUCUGGAUACUAUACUUCCUACUACCUCA | 0.202 ± 0.024
GGAGUGGGUACUAUACAACCUACUACCUCA | 1.49 ± 0.092
CCUCUGGUUAGUAUACAACCUACUACCUCA | 0.121 ± 0.026
GGAGACCUAUGAUAUGUUCCUACUAUCCUCA | < 0.0001
GGAGAGGAAACUAAACAACCUACUACCUCA | 1.24 ± 0.1
GGAGACCUUAGUUUACAACCUACUACCUCA | 0.0932 ± 0.032
GGUCUGGAUUCUAUACAACCUACUAGCUCA | 0.189 ± 0.028
GGAGAGGAUACUAUACAACCUUACUACCUCA | 0.00535 ± 0.0028
CGUCUGGAUACUAUAGAACCUACUACCUCA | 0.382 ± 0.051
